Measurements reported in paper PMC4336329 (PLoS ONE, 2015).
The campaign covered roughly 310,000 compounds. About 2,200 (0.71%) showed an effect of 50% or more. Effects have a minus sign here. The list shows a part of the results.

What follows are molecules tested against human ether-à-go-go-related gene (hERG) potassium channel (human, UniProt Q12809) (assay: primary screen, population patch clamp on CHO cells stably expressing hERG).
human ether-à-go-go-related gene (hERG) potassium channel, sequence (Q12809 whole entry, looked up): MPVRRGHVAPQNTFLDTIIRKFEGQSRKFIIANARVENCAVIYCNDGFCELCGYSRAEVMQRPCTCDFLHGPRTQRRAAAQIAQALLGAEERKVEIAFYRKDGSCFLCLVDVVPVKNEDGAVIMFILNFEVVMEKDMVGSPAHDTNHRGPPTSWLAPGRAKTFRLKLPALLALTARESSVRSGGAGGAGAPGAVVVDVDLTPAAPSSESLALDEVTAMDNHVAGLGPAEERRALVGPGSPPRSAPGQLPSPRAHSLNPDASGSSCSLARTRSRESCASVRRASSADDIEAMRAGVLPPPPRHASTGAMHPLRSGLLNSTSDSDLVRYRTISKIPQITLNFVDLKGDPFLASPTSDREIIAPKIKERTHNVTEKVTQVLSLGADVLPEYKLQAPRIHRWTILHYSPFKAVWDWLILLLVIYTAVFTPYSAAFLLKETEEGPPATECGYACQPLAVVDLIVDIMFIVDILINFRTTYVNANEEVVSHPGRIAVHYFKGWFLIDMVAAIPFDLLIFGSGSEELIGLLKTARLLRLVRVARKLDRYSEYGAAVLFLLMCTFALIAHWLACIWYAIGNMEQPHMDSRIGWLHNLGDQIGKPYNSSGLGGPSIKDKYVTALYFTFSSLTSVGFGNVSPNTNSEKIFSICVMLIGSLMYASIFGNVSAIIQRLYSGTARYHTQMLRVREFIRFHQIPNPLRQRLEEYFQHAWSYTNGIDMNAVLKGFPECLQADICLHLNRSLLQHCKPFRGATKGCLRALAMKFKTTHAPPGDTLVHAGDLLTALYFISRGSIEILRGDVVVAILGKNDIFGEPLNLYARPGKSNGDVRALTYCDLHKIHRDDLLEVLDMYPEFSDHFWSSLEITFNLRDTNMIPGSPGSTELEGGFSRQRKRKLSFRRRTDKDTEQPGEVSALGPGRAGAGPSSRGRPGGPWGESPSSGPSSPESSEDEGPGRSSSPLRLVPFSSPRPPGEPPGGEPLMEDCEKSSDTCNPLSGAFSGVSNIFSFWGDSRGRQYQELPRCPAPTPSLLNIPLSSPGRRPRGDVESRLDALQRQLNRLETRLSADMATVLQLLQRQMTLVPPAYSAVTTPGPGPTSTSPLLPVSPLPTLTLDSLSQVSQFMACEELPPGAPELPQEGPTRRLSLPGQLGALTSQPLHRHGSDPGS

SMILES | hERG current change (%, negative = inhibition) at 1uM
COc1ccccc1C(=O)Nc1ccc2c(c1)nc(CCNC(=O)c1ccccc1)n2C | 11.4%
Cc1cc(=O)oc2c1ccc1ccccc12 | 13.6%
Cc1cc(NC(=O)CSc2nnc(-c3ccncc3)n2-c2ccccc2)no1 | 8.23%
O=C(CSc1nccn1-c1cccc(Cl)c1)NC1CCCC1 | 5.11%
COC(=O)C(Cc1ccccc1)NC(=S)NC(=O)c1ccccc1 (stereo not shown) | 13.5%
CC(=O)Nc1ccc(N=NN2CCOCC2)cc1 | 11.1%
Cc1ccc(-c2ccc(C(=O)O)[nH]2)cc1 | -14.4%
CCCC(=O)Nc1nn(C)c2nc3cc(C)ccc3cc12 | 5.13%
Cc1c(N=C2NC(=O)/C(=C/c3ccc(O)cc3)S2)c(=O)n(-c2ccccc2)n1C | 7.25%
CC1(C)NC(=O)N(CC(O)COc2ccccc2C(=O)N2CCCCC2)C1=O (stereo not shown) | 6.14%
COCCNC(=O)C1CCN(S(=O)(=O)c2ccc3c(c2)OCCO3)CC1 | 9.69%
CC(=O)/C(=C(/O)c1ccccc1)c1nc2ccccc2[nH]1 | 12.4%
COc1ccccc1-n1c(SCC(N)=O)nnc1-c1ccccc1 | 1.19%
COc1ccc(CC(=O)Nc2ccc(/C(C)=N/NC(=O)c3ccc(OC)cc3OC)cc2)cc1 | 17.9%
COc1ccc(C(=O)Cn2c(C)nc([N+](=O)[O-])c2Br)cc1 | 3.64%
Nc1nc(SCC(=O)Nc2ccc([N+](=O)[O-])cc2)[nH]c(=O)c1NC(=O)c1ccc(Br)o1 | 11.3%
C=CCNC(=S)Nc1ccc(C(N)=O)cc1 | 15%
COc1cccc(C(=O)Nc2cccc(C(=O)NCC(C)C)c2)c1 | -10.4%
CCOc1ccc(CN(C)CC(=O)Nc2ccc([N+](=O)[O-])cc2Cl)cc1 | 10.6%
COc1cccc(OC)c1OC(=O)c1cnccn1 | 16.1%

SMILES | hERG current change (%, negative = inhibition) at 1uM
O=C(Nc1ccc(-n2cccn2)cc1)C1CCCCN1Cc1cccc2cccnc12 (stereo not shown) | -1.72%
Cc1csc2nc(NC(=O)c3ccccc3)sc(=O)c12 | 8.93%
O=c1[nH]c(=O)c2cn[nH]c2[nH]1 | 6.29%
O=C(NCCCn1ccnc1)/C(=C/c1ccco1)NC(=O)c1ccco1 | -10.2%
COc1ccc(C(=O)Nc2cc(Cl)cc(Cl)c2)c(OC)n1 | 8.3%
COc1ccc(NC(=O)CSCC(=O)NC2(C)CCS(=O)(=O)C2)cc1 (stereo not shown) | 10.3%
COc1ccc(C(=O)OCC(=O)c2ccccc2)cc1S(=O)(=O)N1CCOCC1 | 1.33%
Cn1nnnc1SCC(=O)N1CCN(C(=O)c2ccco2)CC1 | -6.91%
NC(=O)c1cc(S(=O)(=O)N2CCOCC2)cs1 | 18.9%
O=C(Nc1nccs1)c1cc(N2CCOCC2)nc2ccccc12 | 11.4%
CCc1ccc(OCC(=O)O/N=C(\N)c2cccnc2)cc1 | 0.0916%
C=CCSc1nc2c(c(=O)[nH]1)C(c1ccccc1)C(C#N)=C(N)O2 (stereo not shown) | 5.71%
OC1CCN(Cc2ccc(OCc3ccccc3)cc2)CC1 | 13.1%
O=C(CSc1c(Cl)cccc1Cl)NC1CCCc2ccccc21 (stereo not shown) | 5.72%
c1ccc2nc(N3CCCC3)c(N3CCCC3)nc2c1 | 12.1%
CC(=O)NCCc1ccc(S(=O)(=O)NCc2ccc3c(c2)OCO3)cc1 | 11.9%
CCc1nnc(NC(=O)CSc2nnc(C)n2-c2ccc(C)cc2)s1 | 0.271%
COc1ccc(C(=O)NNC(=O)CCn2nnc(-c3ccc(Cl)cc3)n2)cc1OC | 24.5%
NS(=O)(=O)c1cccc(NC(=O)CSc2nc3ccccc3n2-c2ccccc2)c1 | 16.4%
O=C(CSc1ccc(F)cc1)Nc1ccc(Br)cc1 | 13.9%

SMILES | hERG current change (%, negative = inhibition) at 1uM
Cn1ccnc1C(O)c1cccc(OCc2ccccc2)c1 (stereo not shown) | 9.51%
CC1CCCC(C)N1C(=O)COC(=O)c1ccc(F)c(S(=O)(=O)N2CCOCC2)c1 (stereo not shown) | 9.85%
CC(C)(O)[C@H]1O[C@H]2CC[C@@]3(C)[C@@](O)(CC[C@H]4Cc5c([nH]c6ccccc56)[C@@]43C)C2=CC1=O | 14.4%
CCCn1c(C)cc(C(=O)CN2C(=O)c3cccc(N)c3C2=O)c1C | -0.486%
C[C@@H](NC(=O)[C@@H]1Cc2ccccc2CN1C(=O)OC(C)(C)C)C(=O)NC1CCCC1 | 15.5%
COc1ccccc1NS(=O)(=O)c1cccc(NC(=O)c2nc3nc(C)cc(C)n3n2)c1 | -8.12%
O=C1S/C(=C\C=C\c2ccco2)C(=O)N1c1ccc(O)cc1 | 8.58%
COc1ccc2c(c1)O[C@@]1(CCCC[C@@H]1C)CC2=O | 11.9%
O=C(c1nnc(-c2ccc(Cl)cc2)o1)C1CCCC1 | 5.51%
CCC(C)(C)C1CCc2nc3ccccc3c(C(=O)OC(C)C(=O)Nc3c(C)n(C)n(-c4ccccc4)c3=O)c2C1 (stereo not shown) | 11.4%
CCn1c(=O)c2cc(C(=O)Nc3ccc(OC)cc3OC)sc2c2ccccc21 | 12.4%
CN1CCN(C(=O)CCc2nc3ccccc3c(=O)[nH]2)CC1 | 15.6%
COc1ccc(/[N+]([O-])=C/c2ccoc2)cc1 | 14%
CCC(=O)NC(=S)NNC(=O)c1ccccc1[N+](=O)[O-] | 8.4%
CC(C)c1ccc(NC(=O)C(c2ccccc2)N2CCOCC2)cc1 (stereo not shown) | 1.05%
Cc1ccc(NC(=O)CSc2nnc(CNC(=O)c3c(F)cccc3Cl)o2)cc1 | 11.5%
N#Cc1ccccc1NC(=O)CC1CCCCC1 | 6.16%
O=C(c1ccc2c(c1)OCO2)N1CCC2(CC1)Oc1ccc(Cl)cc1C(=O)C21CC(c2ccccc2)=NO1 (stereo not shown) | 3.4%
